{
  "source": "the supplement of paper PMC8728848",
  "test_in_all_cases": "glycan array binding signal (z-score within array); higher = stronger binding",
  "conditions_in_all_cases": "glycan notation: IUPAC condensed, linker removed",
  "key": {"[1]": {"target": "Neu5Ac(a2-6)Gal(b1-4)GlcNAc(b1-3)Gal(b1-4)GlcNAc(b1-3)Gal(b1-4)GlcNAc", "how_it_was_run": "(§1)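 The binding signal is a Z-score computed within each array and averaged over linkers. Arrays of the same protein sequence at different concentrations or buffers were also averaged together. Data originate from 3228 arrays in the Consortium for Functional Glycomics database, kept only where the protein sequence was available.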"}, "[2]": {"target": "Neu5Ac(a2-6)Gal(b1-4)GlcNAc(b1-3)Gal(b1-4)GlcNAc(b1-3)Gal(b1-4)GlcNAc(b1-2)Man(a1-3)[Neu5Ac(a2-6)Gal(b1-4)GlcNAc(b1-3)Gal(b1-4)GlcNAc(b1-3)Gal(b1-4)GlcNAc(b1-2)Man(a1-6)]GalNAc", "how_it_was_run": "as §1"}, "[3]": {"target": "Neu5Ac(a2-6)Gal(b1-4)GlcNAc(b1-3)Gal(b1-4)GlcNAc(b1-3)GalNAc", "how_it_was_run": "as §1"}, "[4]": {"target": "Neu5Ac(a2-6)Gal(b1-4)GlcNAc(b1-3)Gal(b1-4)GlcNAc(b1-3)[Neu5Ac(a2-6)Gal(b1-4)GlcNAc(b1-3)Gal(b1-4)GlcNAc(b1-6)]GalNAc", "how_it_was_run": "as §1"}, "[5]": {"target": "Neu5Ac(a2-6)Gal(b1-4)GlcNAc(b1-3)Gal(b1-4)GlcNAc(b1-6)[Gal(b1-3)]GalNAc", "how_it_was_run": "as §1"}, "[6]": {"target": "Neu5Ac(a2-6)Gal(b1-4)GlcNAc(b1-3)Gal(b1-4)[Fuc(a1-3)]GlcNAc(b1-3)Gal(b1-4)[Fuc(a1-3)]GlcNAc", "how_it_was_run": "as §1"}, "[7]": {"target": "Neu5Ac(a2-6)Gal(b1-4)GlcNAc(b1-3)GalNAc", "how_it_was_run": "as §1"}, "[8]": {"target": "Neu5Ac(a2-6)Gal(b1-4)GlcNAc(b1-3)[Neu5Ac(a2-6)Gal(b1-4)GlcNAc(b1-6)]GalNAc", "how_it_was_run": "as §1"}, "[9]": {"target": "Neu5Ac(a2-6)Gal(b1-4)GlcNAc(b1-6)GalNAc", "how_it_was_run": "as §1"}, "[10]": {"target": "Neu5Ac(a2-6)Gal(b1-4)GlcNAc(b1-6)[Gal(b1-3)GlcNAc(b1-3)]Gal(b1-4)Glc", "how_it_was_run": "as §1"}, "[11]": {"target": "Neu5Ac(a2-6)Gal(b1-4)GlcNAc(b1-6)[Gal(b1-3)]GalNAc", "how_it_was_run": "as §1"}, "[12]": {"target": "Neu5Ac(a2-6)Gal(b1-4)GlcNAc6S", "how_it_was_run": "as §1"}, "[13]": {"target": "Neu5Ac(a2-6)GalNAc", "how_it_was_run": "as §1"}, "[14]": {"target": "Neu5Ac(a2-6)GalNAc(b1-4)GlcNAc", "how_it_was_run": "as §1"}, "[15]": {"target": "Neu5Ac(a2-6)GalNAc(b1-4)GlcNAc6S", "how_it_was_run": "as §1"}, "[16]": {"target": "Neu5Ac(a2-6)GlcNAc(b1-4)GlcNAc", "how_it_was_run": "as §1"}, "[17]": {"target": "Neu5Ac(a2-6)GlcNAc(b1-4)GlcNAc(b1-4)GlcNAc", "how_it_was_run": "as §1"}, "[18]": {"target": "Neu5Ac(a2-8)Neu5Ac", "how_it_was_run": "as §1"}, "[19]": {"target": "Neu5Ac(a2-8)Neu5Ac(a2-3)Gal(b1-3)GalNAc(b1-4)[Neu5Ac(a2-3)]Gal(b1-4)Glc", "how_it_was_run": "as §1"}, "[20]": {"target": "Neu5Ac(a2-8)Neu5Ac(a2-3)Gal(b1-3)GalNAc(b1-4)[Neu5Ac(a2-8)Neu5Ac(a2-3)]Gal(b1-4)Glc", "how_it_was_run": "as §1"}, "[21]": {"target": "Neu5Ac(a2-8)Neu5Ac(a2-3)Gal(b1-4)Glc", "how_it_was_run": "as §1"}, "[22]": {"target": "Neu5Ac(a2-8)Neu5Ac(a2-3)Gal(b1-4)GlcNAc", "how_it_was_run": "as §1"}, "[23]": {"target": "Neu5Ac(a2-8)Neu5Ac(a2-3)[Gal(b1-3)GalNAc(b1-4)]Gal(b1-4)Glc", "how_it_was_run": "as §1"}, "[24]": {"target": "Neu5Ac(a2-8)Neu5Ac(a2-3)[GalNAc(b1-4)]Gal(b1-4)Glc", "how_it_was_run": "as §1"}, "[25]": {"target": "Neu5Ac(a2-8)Neu5Ac(a2-8)Neu5Ac", "how_it_was_run": "as §1"}, "[26]": {"target": "Neu5Ac(a2-8)Neu5Ac(a2-8)Neu5Ac(a2-3)Gal(b1-4)Glc", "how_it_was_run": "as §1"}, "[27]": {"target": "Neu5Ac(a2-8)Neu5Ac(a2-8)Neu5Ac(a2-3)[Gal(b1-3)GalNAc(b1-4)]Gal(b1-4)Glc", "how_it_was_run": "as §1"}, "[28]": {"target": "Neu5Ac(a2-8)Neu5Ac(a2-8)Neu5Ac(a2-3)[GalNAc(b1-4)]Gal(b1-4)Glc", "how_it_was_run": "as §1"}, "[29]": {"target": "Neu5Ac(a2-8)Neu5Ac(a2-8)Neu5Ac(a2-8)Neu5Ac(a2-3)[GalNAc(b1-4)]Gal(b1-4)Glc", "how_it_was_run": "as §1"}, "[30]": {"target": "Neu5Ac(a2-8)Neu5Gc(a2-3)Gal(b1-4)GlcNAc", "how_it_was_run": "as §1"}, "[31]": {"target": "Neu5Ac(b2-6)Gal(b1-4)GlcNAc", "how_it_was_run": "as §1"}, "[32]": {"target": "Neu5Ac(b2-6)GalNAc", "how_it_was_run": "as §1"}, "[33]": {"target": "Neu5Ac9Ac(a2-3)Gal(b1-3)GlcNAc", "how_it_was_run": "as §1"}, "[34]": {"target": "Neu5Ac9Ac(a2-3)Gal(b1-4)GlcNAc", "how_it_was_run": "as §1"}, "[35]": {"target": "Neu5Ac9Ac(a2-6)Gal(b1-4)GlcNAc", "how_it_was_run": "as §1"}, "[36]": {"target": "Neu5Gc(a2-3)Gal(b1-3)GlcNAc", "how_it_was_run": "as §1"}, "[37]": {"target": "Neu5Gc(a2-3)Gal(b1-3)[Fuc(a1-4)]GlcNAc", "how_it_was_run": "as §1"}, "[38]": {"target": "Neu5Gc(a2-3)Gal(b1-4)Glc", "how_it_was_run": "as §1"}, "[39]": {"target": "Neu5Gc(a2-3)Gal(b1-4)GlcNAc", "how_it_was_run": "as §1"}, "[40]": {"target": "Neu5Gc(a2-3)Gal(b1-4)GlcNAc(b1-3)Gal(b1-4)GlcNAc(b1-2)Man(a1-3)[Neu5Gc(a2-3)Gal(b1-4)GlcNAc(b1-3)Gal(b1-4)GlcNAc(b1-2)Man(a1-6)]Man(b1-4)GlcNAc(b1-4)GlcNAc", "how_it_was_run": "as §1"}, "[41]": {"target": "Neu5Gc(a2-3)Gal(b1-4)[Fuc(a1-3)]GlcNAc", "how_it_was_run": "as §1"}, "[42]": {"target": "Neu5Gc(a2-3)Gal(b1-4)[Fuc(a1-4)]GlcNAc", "how_it_was_run": "as §1"}, "[43]": {"target": "Neu5Gc(a2-6)Gal(b1-4)GlcNAc", "how_it_was_run": "as §1"}, "[44]": {"target": "Neu5Gc(a2-6)GalNAc", "how_it_was_run": "as §1"}, "[45]": {"target": "Neu5Gc(a2-8)Neu5Ac(a2-3)Gal(b1-4)GlcNAc", "how_it_was_run": "as §1"}},
  "note": "This is one part of the list.",
  "data": [
    {"binder": "AAA (Anguilla anguilla), Q7SIC1 (protein) VIPEGYTQENVAVRGKATQSAQLRGEHAANSEASNAIDGNRDSNFYHGSCTHSSGQANPWWRVDLLQVYTITSVTITNRGDCCGERISGAEINIGQHLASNGVNNPECSVIGSMATGETKTFHCPAPMIGRYVVTYLPTSESLHLCEVEVNVDKPAAA", "values": [
      {"measurement": "glycan array binding signal (z-score)", "setting": "[1]", "result": -0.232},
      {"measurement": "glycan array binding signal (z-score)", "setting": "[2]", "result": 0.731},
      {"measurement": "glycan array binding signal (z-score)", "setting": "[3]", "result": -0.256},
      {"measurement": "glycan array binding signal (z-score)", "setting": "[4]", "result": 1.69},
      {"measurement": "glycan array binding signal (z-score)", "setting": "[5]", "result": 0.092},
      {"measurement": "glycan array binding signal (z-score)", "setting": "[6]", "result": -0.184},
      {"measurement": "glycan array binding signal (z-score)", "setting": "[7]", "result": -0.181},
      {"measurement": "glycan array binding signal (z-score)", "setting": "[8]", "result": -0.149},
      {"measurement": "glycan array binding signal (z-score)", "setting": "[9]", "result": -0.18},
      {"measurement": "glycan array binding signal (z-score)", "setting": "[10]", "result": -0.182},
      {"measurement": "glycan array binding signal (z-score)", "setting": "[11]", "result": 0.153},
      {"measurement": "glycan array binding signal (z-score)", "setting": "[12]", "result": 0.298},
      {"measurement": "glycan array binding signal (z-score)", "setting": "[13]", "result": -0.098},
      {"measurement": "glycan array binding signal (z-score)", "setting": "[14]", "result": -0.085},
      {"measurement": "glycan array binding signal (z-score)", "setting": "[15]", "result": -0.189},
      {"measurement": "glycan array binding signal (z-score)", "setting": "[16]", "result": 1.7},
      {"measurement": "glycan array binding signal (z-score)", "setting": "[17]", "result": 2.46},
      {"measurement": "glycan array binding signal (z-score)", "setting": "[18]", "result": -0.156},
      {"measurement": "glycan array binding signal (z-score)", "setting": "[19]", "result": -0.282},
      {"measurement": "glycan array binding signal (z-score)", "setting": "[20]", "result": -0.183},
      {"measurement": "glycan array binding signal (z-score)", "setting": "[21]", "result": -0.169},
      {"measurement": "glycan array binding signal (z-score)", "setting": "[22]", "result": -0.228},
      {"measurement": "glycan array binding signal (z-score)", "setting": "[23]", "result": -0.117},
      {"measurement": "glycan array binding signal (z-score)", "setting": "[24]", "result": -0.079},
      {"measurement": "glycan array binding signal (z-score)", "setting": "[25]", "result": -0.346},
      {"measurement": "glycan array binding signal (z-score)", "setting": "[26]", "result": -0.366},
      {"measurement": "glycan array binding signal (z-score)", "setting": "[27]", "result": -0.09},
      {"measurement": "glycan array binding signal (z-score)", "setting": "[28]", "result": 0.123},
      {"measurement": "glycan array binding signal (z-score)", "setting": "[29]", "result": -0.22},
      {"measurement": "glycan array binding signal (z-score)", "setting": "[30]", "result": -0.177},
      {"measurement": "glycan array binding signal (z-score)", "setting": "[31]", "result": -0.268},
      {"measurement": "glycan array binding signal (z-score)", "setting": "[32]", "result": -0.224},
      {"measurement": "glycan array binding signal (z-score)", "setting": "[33]", "result": -0.34},
      {"measurement": "glycan array binding signal (z-score)", "setting": "[34]", "result": -0.102},
      {"measurement": "glycan array binding signal (z-score)", "setting": "[35]", "result": -0.304},
      {"measurement": "glycan array binding signal (z-score)", "setting": "[36]", "result": -0.228},
      {"measurement": "glycan array binding signal (z-score)", "setting": "[37]", "result": -0.2},
      {"measurement": "glycan array binding signal (z-score)", "setting": "[38]", "result": 0.061},
      {"measurement": "glycan array binding signal (z-score)", "setting": "[39]", "result": -0.006},
      {"measurement": "glycan array binding signal (z-score)", "setting": "[40]", "result": -0.043},
      {"measurement": "glycan array binding signal (z-score)", "setting": "[41]", "result": -0.157},
      {"measurement": "glycan array binding signal (z-score)", "setting": "[42]", "result": 0.394},
      {"measurement": "glycan array binding signal (z-score)", "setting": "[43]", "result": 0.298},
      {"measurement": "glycan array binding signal (z-score)", "setting": "[44]", "result": -0.058},
      {"measurement": "glycan array binding signal (z-score)", "setting": "[45]", "result": -0.29}
    ]}
  ]
}
